The whole screen tested about 50,000 compounds, of which about 800 (1.6%) showed an effect of 50% or more. Some of the results follow.

The target in the assay is Bcl-2-like protein 10 (Homo sapiens) (UniProt Q9HD36). As to the kind of experiment: TR3 peptide-Bcl-B binding displacers, biochemical primary FP assay, phenotype converters (AID 1240).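 Note: 0% = Bcl-B with tracer peptide and DMSO and 100% = tracer peptide lacking Bcl-B.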 As to conditions: GST-Bcl-B / FITC-TR3 peptide fluorescence polarization; stronger effect = higher value; compound at 3.75 mg/L. (In general: Fluorescence polarisation rises when a labelled molecule tumbles more slowly, as on binding a larger partner.)
Chain of UniProt Q9HD36 (Q9HD36 whole entry, looked up): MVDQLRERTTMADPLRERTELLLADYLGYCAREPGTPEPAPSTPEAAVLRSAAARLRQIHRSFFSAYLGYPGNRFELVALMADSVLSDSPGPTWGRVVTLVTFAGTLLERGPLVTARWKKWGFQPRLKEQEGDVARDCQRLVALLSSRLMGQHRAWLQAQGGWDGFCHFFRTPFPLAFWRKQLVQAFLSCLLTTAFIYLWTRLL
For `CCN1C(=O)c2cccc3c(NC(=O)c4ccc(Cl)s4)ccc1c23`, the displacement amounted to 11.6%. Regarding `O=C(COc1ccccc1)Nc1ccc(O)c(-c2nc3ccccc3s2)c1`, the displacement is -0.4%. `CN1CCN(S(=O)(=O)c2ccc(C(C)(C)C)cc2)CC1`: the displacement turned out to be 0.6%.

`C/C(=C\C(=O)c1ccc(C)cc1)Nc1ccc(I)cc1`: the displacement stood at 7.2%. To `NC1=NC(=O)/C(=C\c2ccc(-c3ccc([N+](=O)[O-])cc3)o2)S1` belongs 3.2%; to `COc1ccc(C2=NN(C(=O)CCC(=O)O)C(c3ccccc3OC)C2)cc1` (stereo not drawn), 11.9%; to `Cc1cc(=O)oc2c(C=Nc3c(C)n(C)n(-c4ccccc4)c3=O)c(O)ccc12`, 38.5%. For `CN(C)c1ccc(C(=O)C(O)c2ccc(C(C)(C)C)cc2)cc1` (stereo not drawn), the displacement was determined as 4.7%. To `COc1ccc(NC(=O)CSc2nc3ccccc3o2)c(OC)c1` belongs 13.5%; to `Cc1ccc(N(CCCCN2C(=O)c3ccccc3C2=O)C(=O)c2cccc(C(F)(F)F)c2)cc1`, 12.5%; to `O=[N+]([O-])c1cccc(CSc2nc3ccccc3[nH]2)c1`, -3.6%.

Take `CCOC(=O)c1c(N)sc(NC(=O)c2ccc(C)cc2C)c1C`: the displacement is -9.6%. For `N#C/C(=C\c1ccc(Cl)cc1)c1nc(C2CC2)cs1`, the displacement was -2.2%. As for `Cc1nc2cc(NCc3cc4ccccc4[nH]3)ccc2n1C`, the displacement is -1.6%. To `Cc1ccc(C)c(-c2nc3ccccc3c(C(=O)O)c2C)c1` belongs 0%; to `Cc1ccc(-c2noc(COc3ccc(C(C)(C)C)cc3)n2)cc1`, 1.1%; to `O=C(Nc1cc(F)c(F)cc1Cl)NC(c1ccccc1)c1ccccc1`, -16.6%. In the case of `O=C(/C=C(\O)c1ccc(Br)cc1)C(F)(F)F`, the displacement was -6.5%. To `O=S(=O)(c1cc(Cl)cc(Cl)c1O)c1cc(Cl)cc(Cl)c1O` belongs 18.6%; to `COC(OC)C12c3ccccc3C(c3ccccc31)C1C(=O)N(c3cccc(C)c3C)C(=O)C12` (stereo not drawn), -3.6%; to `O=C(NCC1CCCO1)c1ccc(S(=O)(=O)N2CCCCC2)cc1` (stereo not drawn), -4.5%.

On to `C=CC[n+]1c(/C=C/c2ccc(N(C)C)cc2)ccc2ccccc21`, for which the displacement is -2.5%.

Turning to `COc1cc(-c2nc3sc4c(c3c(=O)[nH]2)CCCC4)ccc1OCc1cccc(F)c1`, the displacement was -16.2%. Regarding `COc1ccc(NC(=O)COc2cc(C)c(Cl)c(C)c2)c(OC)c1`, the displacement was -3.9%. As to `CCN1C(=O)/C(=C\c2cc(Cl)c(OCc3ccccc3F)c(OC)c2)SC1=S`, the displacement amounted to 3.4%. For `Cc1nn(C(=O)c2nn(C)cc2[N+](=O)[O-])c(C)c1Br`, the displacement is -19.5%.

Regarding `COc1ccc(C2CC(=O)C3=C(C2)Nc2ccccc2NC3c2cccc(Br)c2)cc1OC` (stereo not drawn), the displacement is -3%. Consider `COCCNC(=O)C(=O)Nc1ccc(C)cc1`, for which the displacement was determined as 6.7%. On to `CCC(C(=O)Nc1ccccc1I)c1ccccc1` (stereo not drawn), for which the displacement was 7.8%. Regarding `COc1ccc(Br)cc1C(=O)Nc1ccc(O)c(-c2nc3cc(C)c(C)cc3o2)c1`, the displacement stood at 3.8%. For the compound `COc1ccc(C2(O)CN(c3ccccc3)C3=[N+]2CCCS3)cc1` (stereo not drawn), the displacement came to 10.1%. Then `O=C(COC(=O)c1ccccc1C(F)(F)F)c1ccc(Br)cc1`, with -12.2%. Turning to `O=C(NNC(=O)c1ccccc1[N+](=O)[O-])c1ccc(NC(=O)c2ccccc2[N+](=O)[O-])cc1`, the displacement turned out to be 3.9%. To `CCc1cc(C)cc(OCCOc2cccc(/C=c3\sc4nc5ccccc5n4c3=O)c2)c1` belongs 14.6%; to `Cc1nc(C(F)(F)F)nc(Nc2ccc(Br)cc2)c1C#N`, -3.5%; to `Cc1ccc(C(=O)Nc2ccc(C(=O)/C=C/c3cccnc3)cc2)cc1`, 3.8%. Turning to `O=C(/C=C/c1cccc([N+](=O)[O-])c1)NCCN1CCOCC1`, the displacement amounted to 9.7%. Then `Cc1ccc(/C=C2\SC(=N)N(c3ccc(F)cc3)C2=O)cc1`, with 6.7%; and `O=C(O)c1cc(NC(=O)c2cccc(Oc3ccc([N+](=O)[O-])cc3)c2)cc(C(=O)O)c1`, with 5.6%; and `CCOC(=O)Cn1nnc2ccccc21`, with -6%. In the case of `COc1ccc(/C=C2\CCc3cc(OC)ccc3C2=O)cc1`, the displacement is -4.8%. Then `O=C(c1cccs1)N1N=C(c2ccccc2)CC1c1ccccc1` (stereo not drawn), with -4.3%.

On to `CCc1ccc(N2C(=O)NC(=O)/C(=C\c3cc(Cl)c(O)c(Cl)c3)C2=O)cc1`, for which the displacement was -10.8%. Then `O=C(O)/C=C/c1c(F)c(F)c(F)c(F)c1F`, with 0.7%.

As to `Clc1ccc(CN2CCN(C3CCN(Cc4ccccc4)CC3)CC2)cc1`, the displacement was -8%. `COc1ccc(/C=N/N=C2c3ccccc3-c3ccccc32)c(OC)c1`: the displacement was -4.4%. Then `O=C1/C(=C/c2cccs2)SC(=S)N1c1cccc(O)c1`, with -2.6%. For `CS(=O)(=O)N(Cc1ccc(C(=O)N[C@@H]2C[C@H]3CC[C@@H]2C3)cc1)c1ccccc1`, the displacement was 12.9%. As for `COc1ccccc1NC(=O)CSc1nc(C)cc(C)n1`, the displacement stood at 9.8%.

Regarding `C=CCN1C(=O)/C(=C\c2ccc(-c3ccc([N+](=O)[O-])cc3C)o2)C(=O)NC1=S`, the displacement was 14.8%.

As to `CCOc1cc(/C=N/Nc2nc(N3CCOCC3)nc(N3CCOCC3)n2)ccc1OCc1ccccc1`, the displacement amounted to 2.1%.

In the case of `O=C(Nc1ccc2c(c1)OCO2)c1cccc(F)c1`, the displacement was -3.5%. In the case of `CN1CCN(c2ccc([N+](=O)[O-])c(NCCOc3ccc(C(C)(C)C)cc3)c2)CC1`, the displacement came out at 7.3%. Regarding `CC(C)(C)NC(=O)c1cc(-c2ccc(Cl)cc2)nc2ccccc12`, the displacement was 15.9%. Then `Cc1ccccc1NC(=O)CCCN1C(=O)/C(=C/c2cccc3c2OCO3)SC1=S`, with 94.9%; and `C=CC(=O)NC(NC(=O)C=C)c1ccc(Br)cc1`, with -5.1%; and `O=c1oc2ccccc2c2c1nnn2CCN1CCCCC1`, with -6%.

For `COc1cc(NC(=O)Cn2nc(C(F)(F)F)c(Br)c2C)c(OC)cc1Cl`, the displacement was -7%.

In the case of `O=C1C2C(c3ccccc3)OC3(C(=O)c4ccccc4C3=O)C2C(=O)N1c1ccc(F)c([N+](=O)[O-])c1` (stereo not drawn), the displacement was -6.5%.

For the compound `CS(=O)(=O)N1CCN(C(=O)c2ccc([N+](=O)[O-])cc2)CC1`, the displacement is -29.2%.

Take `CC(=O)Nc1ccc(S(=O)(=O)N/N=C(\C)c2cccs2)cc1`: the displacement came to 2.2%. As for `CO/N=C(/c1nonc1N)N1CCN(c2ccc([N+](=O)[O-])cc2)CC1`, the displacement is 14.1%. `Cc1ccc(C(C)C)c(OCC(=O)Nc2ccc(NC(=O)c3ccco3)cc2)c1`: the displacement stood at 33.9%.

On to `CCN1CCN(Cc2c(O)ccc3ccccc23)CC1`, for which the displacement was found to be 13.6%. With `CCN(CC)c1ccc(NC(=O)c2ccccc2)cc1`, the displacement amounted to 11.1%. On to `c1ccc(C2CCC(N3CCN(Cc4ccncc4)CC3)CC2)cc1` (stereo not drawn), for which the displacement is -0.2%. `CCCCOc1ccc(NCN2C(=O)c3ccccc3C2=O)cc1`: the displacement amounted to 14.6%. Then `CCn1c(C)[n+](CC)c2ccc([N+](=O)[O-])cc21`, with 11.4%.
